Laboratory results published in a collection of fitness landscapes (doi:10.1016/j.celrep.2020.107928).
The full ranking holds about 81,000 sequences; the median of “one-hybrid fitness for binding NBS DNA” is about -0.1, and the highest 2% start at about 0.36. The list shows a part of the results.

B1: Caulobacter ParB omega fusion; a variant is named by its letters at X, in order, B8GW30 (parent)
chain: MESVVVGEPGMSEGRRGLGRGLSALLGEVDAAPAQAPGEQLGGSREAPIEILQRNPDQPRRTFREEDLEDLSNSIREKGVLQPILVRPSPDTAGEYQIVAGERAWRAAQRAGLKTVPIMVRELDDLAVLEIGIIENVQRADLNVLEEALSYKVLMEKFERTQENIAQTIGKSXSHVANXMRLLXLPDEVQSYLVSGELTAXHARAIAAAADPVALAKQIIEGGLSVRETEALARKAPNLSAGKSKGGRPPRVKDTDTQALESDLSSVLGLDVSIDHRGSTGTLTITYATLEQLDDLCNRLTRGI

Variants of: B1
Assay: one-hybrid fitness for binding NBS DNA (the Noc-binding site; scaled: cognate 1, non-cognate 0); higher = stronger binding
Conditions: with NBS DNA site
Outline: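 On M9-minus-histidine containing 0.1 mM IPTG and 5 mM 3-AT, E. coli USO cells with a HIS3 reporter, site 19 bp from the promoter, grew 48 hours at 37°C to select Caulobacter ParB libraries randomised at four specificity codons. Plasmids from before and after were Illumina-sequenced, with three replicate libraries pooled and variants under 10 reads left out. Fitness is the log change in variant-to-wild-type read ratio, rescaled against cognate and non-cognate.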

Variant	one-hybrid fitness for binding NBS DNA
KCYC	≤ 0.2
SVNN	≤ 0.2
NMLC	≤ 0.2
NHCG	≤ 0.2
LLRW	≤ 0.2
AAHN	≤ 0.2
THMY	≤ 0.2
RYHT	0.45
NDMY	≤ 0.2
PYNW	≤ 0.2
LHAE	≤ 0.2
VSRK	≤ 0.2
LMEY	≤ 0.2
TDHP	≤ 0.2
NHFV	≤ 0.2
IFLC	≤ 0.2
QTIA	0.224
FITT	≤ 0.2
TIKP	≤ 0.2
QRWL	≤ 0.2
PVCG	≤ 0.2
CYET	≤ 0.2
KWSA	≤ 0.2
CPNS	≤ 0.2
LCCE	≤ 0.2

Variant	one-hybrid fitness for binding NBS DNA
VQEA	≤ 0.2
TQQT	≤ 0.2
SMGS	≤ 0.2
IECV	≤ 0.2
EPRY	≤ 0.2
QNYV	≤ 0.2
DTGW	≤ 0.2
RTQE	≤ 0.2
QRNK	0.488
PSPA	≤ 0.2
ARQE	≤ 0.2
NPWK	≤ 0.2
DAFS	≤ 0.2
YDPP	≤ 0.2
KSIR	≤ 0.2
APLA	≤ 0.2
QIIF	≤ 0.2
SIES	≤ 0.2
PYML	≤ 0.2
LKRR	≤ 0.2
NFTS	≤ 0.2
RWDI	≤ 0.2
GRFS	≤ 0.2
RGHA	≤ 0.2
IARD	≤ 0.2

Variant	one-hybrid fitness for binding NBS DNA
QRNF	0.327
TCEI	≤ 0.2
ASNF	≤ 0.2
GHGS	≤ 0.2
PDVC	≤ 0.2
SYNC	≤ 0.2
QCVC	≤ 0.2
RFCQ	≤ 0.2
MPIT	≤ 0.2
WPPD	≤ 0.2
QHYS	0.324
MRGL	≤ 0.2
QSWA	≤ 0.2
GMNW	≤ 0.2
KQCT	≤ 0.2
MTVL	≤ 0.2
ELHR	≤ 0.2
QAPP	≤ 0.2
FGPR	≤ 0.2
LLRE	≤ 0.2
NYDG	≤ 0.2
GGDN	≤ 0.2
RARF	≤ 0.2
QRPA	0.207
FDNY	≤ 0.2

Variant	one-hybrid fitness for binding NBS DNA
YYTT	≤ 0.2
RILD	≤ 0.2
GRSM	≤ 0.2
TFYD	≤ 0.2
ALIE	≤ 0.2
ECRA	≤ 0.2
YIKT	≤ 0.2
QLRT	0.668
NREM	≤ 0.2
LHQG	≤ 0.2
AMPK	≤ 0.2
ETRT	≤ 0.2
SGND	≤ 0.2
LKTA	≤ 0.2
VPKL	≤ 0.2
PMHN	≤ 0.2
RCTM	≤ 0.2
YHSA	≤ 0.2
WACR	≤ 0.2
MKSD	≤ 0.2
SVTE	≤ 0.2
EYQG	≤ 0.2
TRFR	0.221
KSCD	≤ 0.2
AWYP	≤ 0.2

Variant	one-hybrid fitness for binding NBS DNA
ECLN	≤ 0.2
RMEH	≤ 0.2
APKG	≤ 0.2
HPNA	≤ 0.2
GRNG	≤ 0.2
ICNV	≤ 0.2
RLCC	≤ 0.2
DGQG	≤ 0.2
RDGF	≤ 0.2
CSTV	≤ 0.2
TNWP	≤ 0.2
QSAH	≤ 0.2
QYDI	≤ 0.2
DANT	≤ 0.2
EQIL	≤ 0.2
GTET	≤ 0.2
HMQG	≤ 0.2
NMNL	≤ 0.2
AAGV	≤ 0.2
WTGF	≤ 0.2
QDFN	≤ 0.2
VSVM	≤ 0.2
GDKG	≤ 0.2
LHGT	≤ 0.2
TNHM	≤ 0.2

Variant	one-hybrid fitness for binding NBS DNA
STFS	≤ 0.2
HGIV	≤ 0.2
NLMQ	≤ 0.2
LWVV	≤ 0.2
EAQE	≤ 0.2
PHRV	≤ 0.2
AVHA	≤ 0.2
MCMT	≤ 0.2
WFTF	≤ 0.2
QYDD	≤ 0.2
TTTI	≤ 0.2
SRFT	≤ 0.2
ITHS	≤ 0.2
QARG	0.313
FWAR	≤ 0.2
PQGG	≤ 0.2
ALLC	≤ 0.2
DTYL	≤ 0.2
QDQW	≤ 0.2
IYHA	≤ 0.2
RERM	≤ 0.2
LGHC	≤ 0.2
RWKD	≤ 0.2
KETI	≤ 0.2
KCWK	≤ 0.2

Variant	one-hybrid fitness for binding NBS DNA
KVHM	≤ 0.2
EDPS	≤ 0.2
RQFQ	≤ 0.2
TNTL	≤ 0.2
NINK	≤ 0.2
VKCS	≤ 0.2
SRLM	≤ 0.2
GDYT	≤ 0.2
RFLW	≤ 0.2
YRKM	≤ 0.2
DLQL	≤ 0.2
MLVH	≤ 0.2
IPFG	≤ 0.2
MCSG	≤ 0.2
LKSA	≤ 0.2
QFQL	≤ 0.2
RWNI	≤ 0.2
DFTS	≤ 0.2
AKRL	≤ 0.2
TSPD	≤ 0.2
HAKG	≤ 0.2
LDDR	≤ 0.2
DTMK	≤ 0.2
TETW	≤ 0.2
CTQR	≤ 0.2

Variant	one-hybrid fitness for binding NBS DNA
RIDS	≤ 0.2
SPNI	≤ 0.2
FASH	≤ 0.2
AAYC	≤ 0.2
MWPW	≤ 0.2
YTFT	≤ 0.2
QKWA	≤ 0.2
HSAK	≤ 0.2
WLCI	≤ 0.2
HIGF	≤ 0.2
PICG	≤ 0.2
DEVA	≤ 0.2
PIHY	≤ 0.2
WSQY	≤ 0.2
FCTI	≤ 0.2
CIRT	≤ 0.2
RPQF	≤ 0.2
APFV	≤ 0.2
FWTN	≤ 0.2
ARVY	≤ 0.2
